Measured values from the supplement of paper PMC10126150.
Sequences with one replicate were seen in a single cluster, so their values are uncertain.

Test system: ATP
Assay: switch fluorescence ratio, 500 uM ATP over buffer (Cy3 cluster intensity, sum of 5 cycles each) (fold (ratio)); higher = stronger signal-on switching upon ATP binding; sequences stand for … in TCGTCGGCAGCGTCAGATGTGTATAAGAGACAGTTTTTTTTTTTTTTTTTTTTTTTTT…TC
Details: aptamer strand: ATP DNA aptamer (quencher-CACCTGGGGGAGTATTGCGGAGGAAGG + anchor), 100 nM annealed; ATP concentration: 500 uM; one replicate
Method in brief: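 Between each of five buffer/ATP cycles, the flow-cell was stripped with NaOH and re-annealed. Each cycle imaged Cy3-labelled switching-strand clusters, annealed to 100 nM quencher-labelled ATP aptamer on a modified Illumina MiSeq flow-cell, first in selection buffer and then after 15 min with 500 uM ATP at 22 °C. The fluorescence ratio is summed target-cycle over summed buffer-cycle Cy3 intensity per cluster, averaged per switch-domain sequence, with clusters outside 100-1000 RFU excluded.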
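Note: ATP exposure 15 min at 22 °C before imaging.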

For GCGTGACGTT, the switch fluorescence ratio was 0.981.
With TGCAATTTGC the switch fluorescence ratio was 1.
With CGTACTCAGG the switch fluorescence ratio was 1.34.
Sequence CGAGACAAG has a switch fluorescence ratio of 0.953.
In the case of TCACAGTG, the switch fluorescence ratio is reported as 1.08.
AAAAAGTGTG showed a switch fluorescence ratio of 0.994.
Work on GCACCAACTT yielded a switch fluorescence ratio of 1.09.
Sequence CTTCAAGGGT has a switch fluorescence ratio of 0.976.
TGTGTGTAAT was tested, and the switch fluorescence ratio was 1.02.
TAGTAGAAAT showed a switch fluorescence ratio of 0.984.
CCGGCATTTT gave a switch fluorescence ratio of 1.12.
TTGTTCTTCA was tested, and the switch fluorescence ratio was 0.944.
GGTTTGAGCG was tested, and the switch fluorescence ratio was 0.983.
GAGTGTGTA was tested, and the switch fluorescence ratio was 0.973.
Sequence AGGCATGGCT has a switch fluorescence ratio of 0.94.
Sequence GTCGCCTTTA has a switch fluorescence ratio of 1.02.
In the case of GTGGGGGAT, the switch fluorescence ratio is reported as 1.01.
GCCGTAAAAG gave a switch fluorescence ratio of 1.03.
Sequence CGGCATCGTA has a switch fluorescence ratio of 1.04.
CACGGGATAA was tested, and the switch fluorescence ratio was 1.05.
Sequence AGAGTGTCT has a switch fluorescence ratio of 0.999.
AGCTCTGTGA gave a switch fluorescence ratio of 1.04.
Work on GCGTGAAGTC yielded a switch fluorescence ratio of 1.03.
With CGAGTATTTG the switch fluorescence ratio was 0.983.
TTATGGTTCC was tested, and the switch fluorescence ratio was 0.967.
Work on GAGCCAGCCT yielded a switch fluorescence ratio of 1.04.
Sequence AGTAATCGGT has a switch fluorescence ratio of 0.964.
In the case of TGGGTCATGT, the switch fluorescence ratio is reported as 0.977.
In the case of ATAATTGACA, the switch fluorescence ratio is reported as 1.08.
In the case of CAATCAGCCT, the switch fluorescence ratio is reported as 1.09.
GAGAGTTTTG was tested, and the switch fluorescence ratio was 0.957.
AGACGCCTGT gave a switch fluorescence ratio of 1.07.
Sequence CCCATTCTCA has a switch fluorescence ratio of 1.02.
Work on CGTAGTTGCG yielded a switch fluorescence ratio of 0.99.
CAGTTTCAAT showed a switch fluorescence ratio of 1.03.
In the case of ATATAGCGAT, the switch fluorescence ratio is reported as 1.05.
GGAGGACGTC was tested, and the switch fluorescence ratio was 1.03.
With CAAGAGTGTT the switch fluorescence ratio was 0.975.
CAGTATCAGT was tested, and the switch fluorescence ratio was 0.995.
In the case of TCTGATGCCG, the switch fluorescence ratio is reported as 0.989.
ATATTCCCGA showed a switch fluorescence ratio of 1.
TAGTAAAGC was tested, and the switch fluorescence ratio was 1.04.
GGGCGGCGGA gave a switch fluorescence ratio of 0.957.
For TGACTCATG, the switch fluorescence ratio was 1.01.
Work on ATTGAATCAC yielded a switch fluorescence ratio of 1.01.
Work on TGAGCATAAG yielded a switch fluorescence ratio of 0.999.
In the case of TTCGGCGGAT, the switch fluorescence ratio is reported as 1.01.
TGTACGTTA showed a switch fluorescence ratio of 1.25.
Sequence AGGGAGGGAC has a switch fluorescence ratio of 0.993.
Sequence CAAGAGACTC has a switch fluorescence ratio of 1.08.
Work on AAGTCTGTGG yielded a switch fluorescence ratio of 0.991.
TTTAAATCC gave a switch fluorescence ratio of 1.03.
For ATAACAGTGG, the switch fluorescence ratio was 1.01.
Work on TATAGTATAT yielded a switch fluorescence ratio of 1.14.
Sequence CAGTAGTAA has a switch fluorescence ratio of 1.64.
GGGTAGCGAA was tested, and the switch fluorescence ratio was 0.945.
ACAGTTACGA showed a switch fluorescence ratio of 1.14.
TTACTGCCGC showed a switch fluorescence ratio of 1.05.
Work on TCCAACAGTT yielded a switch fluorescence ratio of 1.02.
In the case of AGGTCAGGGC, the switch fluorescence ratio is reported as 1.03.
GTTTACCAAT was tested, and the switch fluorescence ratio was 0.951.
With CGGAGACGGC the switch fluorescence ratio was 1.1.
For GTCCGCCTTT, the switch fluorescence ratio was 1.1.
For GTAGAAGAAG, the switch fluorescence ratio was 1.16.
CCTCTAAGG was tested, and the switch fluorescence ratio was 1.
In the case of CAACTTGC, the switch fluorescence ratio is reported as 1.05.
With GCGTGAGCAA the switch fluorescence ratio was 1.03.
GCTTGTCAGC showed a switch fluorescence ratio of 0.992.
In the case of CAGCGGTTTC, the switch fluorescence ratio is reported as 1.06.
TTCATCTCTT was tested, and the switch fluorescence ratio was 1.01.
CAGACGACTT showed a switch fluorescence ratio of 1.09.
CCAATTGAGT showed a switch fluorescence ratio of 1.07.
Sequence GGGCTGCTCC has a switch fluorescence ratio of 2.71.
For TATGTTCAAA, the switch fluorescence ratio was 0.959.
Work on TTTCACGTAT yielded a switch fluorescence ratio of 1.64.
Sequence CGAAACTATG has a switch fluorescence ratio of 1.03.
For CTGATTCGAC, the switch fluorescence ratio was 1.03.
GGTTTTAGTA showed a switch fluorescence ratio of 1.04.
CCAATCCTGA showed a switch fluorescence ratio of 1.07.
TGTATTAAGC gave a switch fluorescence ratio of 0.982.
In the case of GGTTGATGTG, the switch fluorescence ratio is reported as 0.989.
With CGCATTCATA the switch fluorescence ratio was 1.14.
CCTTTTATGG gave a switch fluorescence ratio of 1.02.
GAGGTCTGGA was tested, and the switch fluorescence ratio was 0.982.
Work on TACTTATGTC yielded a switch fluorescence ratio of 0.992.
Sequence GCGAGAAGCA has a switch fluorescence ratio of 1.03.
GCTGGGCCCA gave a switch fluorescence ratio of 0.968.
ACTTCTTTTT was tested, and the switch fluorescence ratio was 1.02.
With GAAGGTCTAT the switch fluorescence ratio was 0.998.
For TATGAGTA, the switch fluorescence ratio was 1.01.
CCCCAGCGTG gave a switch fluorescence ratio of 5.91.
Sequence CTACGATAGA has a switch fluorescence ratio of 1.05.
ACCGGGAAAT was tested, and the switch fluorescence ratio was 1.03.
In the case of ATCGTGCACT, the switch fluorescence ratio is reported as 0.979.
GGATGCAGCG gave a switch fluorescence ratio of 1.1.
In the case of AAAGTTGTAG, the switch fluorescence ratio is reported as 0.974.
In the case of ATTATTGACG, the switch fluorescence ratio is reported as 1.01.
Sequence GGTCTTGAAG has a switch fluorescence ratio of 0.978.
With TATTGATGTG the switch fluorescence ratio was 1.
In the case of TCAATACTAA, the switch fluorescence ratio is reported as 1.04.
In the case of TTTAGATCCT, the switch fluorescence ratio is reported as 1.06.
CATTTGCAAT gave a switch fluorescence ratio of 1.17.
In the case of TGCATGATG, the switch fluorescence ratio is reported as 0.982.
Work on ATAACGGCTC yielded a switch fluorescence ratio of 1.
With ACCGGTGTTG the switch fluorescence ratio was 1.04.
CGTGTTTCAC showed a switch fluorescence ratio of 1.04.
Work on GGCCTAGAAT yielded a switch fluorescence ratio of 0.973.
GGTCCCTAGT gave a switch fluorescence ratio of 0.974.
For GAAGACCACC, the switch fluorescence ratio was 1.2.
TAGGCGAGCT was tested, and the switch fluorescence ratio was 1.05.
ATAGGTGTAT gave a switch fluorescence ratio of 1.02.
AGAACTGGGG was tested, and the switch fluorescence ratio was 1.02.
Work on CCAAGCGGCT yielded a switch fluorescence ratio of 1.03.
CCGGAGGCCA showed a switch fluorescence ratio of 1.29.
ACATAATGAT showed a switch fluorescence ratio of 0.969.
TCACGAAAGG gave a switch fluorescence ratio of 1.06.
AGTCATTCG showed a switch fluorescence ratio of 1.03.
AGCCTGACTT was tested, and the switch fluorescence ratio was 1.13.
Work on AAGGGGAACG yielded a switch fluorescence ratio of 0.975.
AGATAGGACA gave a switch fluorescence ratio of 1.07.
TTCTAAAGCA was tested, and the switch fluorescence ratio was 1.11.
Work on CATTCTTATC yielded a switch fluorescence ratio of 0.973.
ATGAGGCCGT was tested, and the switch fluorescence ratio was 1.04.
ACTACGTGGC gave a switch fluorescence ratio of 1.78.
TTATGTATC gave a switch fluorescence ratio of 1.01.
For CTAAAATACT, the switch fluorescence ratio was 1.22.
In the case of CGCATTTCAT, the switch fluorescence ratio is reported as 1.02.
ACTCCCAGGA showed a switch fluorescence ratio of 3.31.
Work on TGCTCAATTA yielded a switch fluorescence ratio of 1.03.
CCACGGCGGC showed a switch fluorescence ratio of 1.35.
GGTGCGACGG showed a switch fluorescence ratio of 0.98.
For TAGTCCAGTG, the switch fluorescence ratio was 1.42.
TTTGTACTGC was tested, and the switch fluorescence ratio was 1.06.
For CCTACCCCT, the switch fluorescence ratio was 1.16.
For TGAAGCACGT, the switch fluorescence ratio was 1.1.
CGGGCTCAGA showed a switch fluorescence ratio of 0.934.
In the case of GAGGACTGGG, the switch fluorescence ratio is reported as 1.04.
GTGGTGTAAA was tested, and the switch fluorescence ratio was 0.97.
In the case of CTTCGGCTAC, the switch fluorescence ratio is reported as 6.05.
Sequence ATTAATGTGG has a switch fluorescence ratio of 0.979.
AATGTTAATC gave a switch fluorescence ratio of 1.02.
In the case of CATCGATCTG, the switch fluorescence ratio is reported as 0.982.
GGGTGGTTGT showed a switch fluorescence ratio of 0.981.
Sequence TTTTCCCAG has a switch fluorescence ratio of 1.12.
TACTCGGAGT gave a switch fluorescence ratio of 1.04.
CCGCATCCTG showed a switch fluorescence ratio of 2.55.
For ACCACTCAGG, the switch fluorescence ratio was 1.22.
Work on TAAAGCGAGG yielded a switch fluorescence ratio of 1.04.
For CTTCTCTGGA, the switch fluorescence ratio was 1.03.
Sequence GAGACACTCT has a switch fluorescence ratio of 0.958.
AATGGCAGAG showed a switch fluorescence ratio of 0.981.
For CTATTGGTGC, the switch fluorescence ratio was 0.98.
TAACTGAG gave a switch fluorescence ratio of 0.998.
With ATTGGGTGAT the switch fluorescence ratio was 0.998.
In the case of TAGAGGTCTC, the switch fluorescence ratio is reported as 1.03.
Work on TGGATATGTA yielded a switch fluorescence ratio of 1.04.
TCATCCAGCG showed a switch fluorescence ratio of 1.46.
Sequence TTTCAGAATC has a switch fluorescence ratio of 0.993.
